According to the supplement of paper PMC8728848:
The other results are listed elsewhere or left out.

What was measured:
Assay in all cases: glycan array binding signal (z-score within array); higher = stronger binding
Details in all cases: glycan notation: IUPAC condensed, linker removed
[1] = target: GlcNAc(a1-6)Gal(b1-4)GlcNAc
Procedure, shortened: (§1)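 Columns mapping to the same glycan were averaged after glycan names were converted to IUPAC-condensed notation. The data come from 3228 arrays in the Consortium for Functional Glycomics database, limited to those with an available protein sequence. Binding is reported as a within-array Z-score averaged across arrays of one protein sequence and across linkers.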

[2] = target: GlcNAc(b1-2)Gal(b1-3)GalNAc
Procedure, shortened: as §1

[3] = target: GlcNAc(b1-2)Man(a1-3)[GlcNAc(b1-2)Man(a1-6)]Man(b1-4)GlcNAc(b1-4)GlcNAc
Procedure, shortened: as §1

[4] = target: GlcNAc(b1-2)Man(a1-3)[GlcNAc(b1-2)Man(a1-6)]Man(b1-4)GlcNAc(b1-4)[Fuc(a1-6)]GlcNAc
Procedure, shortened: as §1

[5] = target: GlcNAc(b1-2)Man(a1-3)[GlcNAc(b1-4)][GlcNAc(b1-2)Man(a1-6)]Man(b1-4)GlcNAc(b1-4)GlcNAc
Procedure, shortened: as §1

[6] = target: GlcNAc(b1-2)Man(a1-3)[GlcNAc(b1-4)][GlcNAc(b1-2)Man(a1-6)]Man(b1-4)GlcNAc(b1-4)[Fuc(a1-6)]GlcNAc
Procedure, shortened: as §1

[7] = target: GlcNAc(b1-2)[GlcNAc(b1-4)]Man(a1-3)[GlcNAc(b1-2)Man(a1-6)]Man(b1-4)GlcNAc(b1-4)GlcNAc
Procedure, shortened: as §1

[8] = target: GlcNAc(b1-2)[GlcNAc(b1-4)]Man(a1-3)[GlcNAc(b1-4)][GlcNAc(b1-2)Man(a1-6)]Man(b1-4)GlcNAc(b1-4)GlcNAc
Procedure, shortened: as §1

[9] = target: GlcNAc(b1-2)[GlcNAc(b1-4)]Man(a1-3)[GlcNAc(b1-4)][GlcNAc(b1-2)[GlcNAc(b1-6)]Man(a1-6)]Man(b1-4)GlcNAc(b1-4)GlcNAc
Procedure, shortened: as §1

[10] = target: GlcNAc(b1-2)[GlcNAc(b1-4)]Man(a1-3)[GlcNAc(b1-4)][GlcNAc(b1-2)[GlcNAc(b1-6)]Man(a1-6)]Man(b1-4)GlcNAc(b1-4)[Fuc(a1-6)]GlcNAc
Procedure, shortened: as §1

[11] = target: GlcNAc(b1-2)[GlcNAc(b1-6)]Man(a1-6)[GlcNAc(b1-2)Man(a1-3)]Man(b1-4)GlcNAc(b1-4)GlcNAc
Procedure, shortened: as §1

[12] = target: GlcNAc(b1-2)[GlcNAc(b1-6)]Man(a1-6)[GlcNAc(b1-2)Man(a1-3)]Man(b1-4)GlcNAc(b1-4)[Fuc(a1-6)]GlcNAc
Procedure, shortened: as §1

[13] = target: GlcNAc(b1-2)[GlcNAc(b1-6)]Man(a1-6)[GlcNAc(b1-4)][GlcNAc(b1-2)Man(a1-3)]Man(b1-4)GlcNAc(b1-4)GlcNAc
Procedure, shortened: as §1

[14] = target: GlcNAc(b1-3)Fuc
Procedure, shortened: as §1

[15] = target: GlcNAc(b1-3)Gal
Procedure, shortened: as §1

[16] = target: GlcNAc(b1-3)Gal(b1-3)GalNAc
Procedure, shortened: as §1

[17] = target: GlcNAc(b1-3)Gal(b1-4)Glc
Procedure, shortened: as §1

[18] = target: GlcNAc(b1-3)Gal(b1-4)GlcNAc
Procedure, shortened: as §1

[19] = target: GlcNAc(b1-3)Gal(b1-4)GlcNAc(b1-2)Man(a1-3)[GlcNAc(b1-3)Gal(b1-4)GlcNAc(b1-2)Man(a1-6)]Man(b1-4)GlcNAc(b1-4)GlcNAc
Procedure, shortened: as §1

[20] = target: GlcNAc(b1-3)Gal(b1-4)GlcNAc(b1-2)Man(a1-3)[GlcNAc(b1-3)Gal(b1-4)GlcNAc(b1-2)Man(a1-6)]Man(b1-4)GlcNAc(b1-4)[Fuc(a1-6)]GlcNAc
Procedure, shortened: as §1

[21] = target: GlcNAc(b1-3)Gal(b1-4)GlcNAc(b1-2)[GlcNAc(b1-3)Gal(b1-4)GlcNAc(b1-6)]Man(a1-6)[GlcNAc(b1-3)Gal(b1-4)GlcNAc(b1-2)Man(a1-3)]Man(b1-4)GlcNAc(b1-4)GlcNAc
Procedure, shortened: as §1

[22] = target: GlcNAc(b1-3)Gal(b1-4)GlcNAc(b1-3)Gal(b1-4)GlcNAc
Procedure, shortened: as §1

[23] = target: GlcNAc(b1-3)Gal(b1-4)GlcNAc(b1-3)Gal(b1-4)GlcNAc(b1-2)Man(a1-3)[GlcNAc(b1-3)Gal(b1-4)GlcNAc(b1-3)Gal(b1-4)GlcNAc(b1-2)Man(a1-6)]Man(b1-4)GlcNAc(b1-4)GlcNAc
Procedure, shortened: as §1

[24] = target: GlcNAc(b1-3)Gal(b1-4)GlcNAc(b1-3)Gal(b1-4)GlcNAc(b1-2)Man(a1-3)[GlcNAc(b1-3)Gal(b1-4)GlcNAc(b1-3)Gal(b1-4)GlcNAc(b1-2)Man(a1-6)]Man(b1-4)GlcNAc(b1-4)[Fuc(a1-6)]GlcNAc
Procedure, shortened: as §1

[25] = target: GlcNAc(b1-3)Gal(b1-4)GlcNAc(b1-3)Gal(b1-4)GlcNAc(b1-2)[GlcNAc(b1-3)Gal(b1-4)GlcNAc(b1-3)Gal(b1-4)GlcNAc(b1-6)]Man(a1-6)[GlcNAc(b1-3)Gal(b1-4)GlcNAc(b1-3)Gal(b1-4)GlcNAc(b1-2)Man(a1-3)]Man(b1-4)GlcNAc(b1-4)[Fuc(a1-6)]GlcNAc
Procedure, shortened: as §1

[26] = target: GlcNAc(b1-3)Gal(b1-4)GlcNAc(b1-3)Gal(b1-4)GlcNAc(b1-3)Gal(b1-4)GlcNAc(b1-2)Man(a1-3)[GlcNAc(b1-3)Gal(b1-4)GlcNAc(b1-3)Gal(b1-4)GlcNAc(b1-3)Gal(b1-4)GlcNAc(b1-2)Man(a1-6)]Man(b1-4)GlcNAc(b1-4)GlcNAc
Procedure, shortened: as §1

[27] = target: GlcNAc(b1-3)Gal(b1-4)GlcNAc(b1-3)Gal(b1-4)GlcNAc(b1-3)Gal(b1-4)GlcNAc(b1-2)Man(a1-3)[GlcNAc(b1-3)Gal(b1-4)GlcNAc(b1-3)Gal(b1-4)GlcNAc(b1-3)Gal(b1-4)GlcNAc(b1-2)Man(a1-6)]Man(b1-4)GlcNAc(b1-4)[Fuc(a1-6)]GlcNAc
Procedure, shortened: as §1

[28] = target: GlcNAc(b1-3)Gal(b1-4)GlcNAc(b1-3)Gal(b1-4)GlcNAc(b1-3)Gal(b1-4)GlcNAc(b1-2)[GlcNAc(b1-3)Gal(b1-4)GlcNAc(b1-3)Gal(b1-4)GlcNAc(b1-3)Gal(b1-4)GlcNAc(b1-6)]Man(a1-6)[GlcNAc(b1-3)Gal(b1-4)GlcNAc(b1-3)Gal(b1-4)GlcNAc(b1-3)Gal(b1-4)GlcNAc(b1-2)Man(a1-3)]Man(b1-4)GlcNAc(b1-4)[Fuc(a1-6)]GlcNAc
Procedure, shortened: as §1

[29] = target: GlcNAc(b1-3)Gal(b1-4)GlcNAc(b1-3)Gal(b1-4)GlcNAc(b1-3)Gal(b1-4)GlcNAc(b1-3)Gal(b1-4)GlcNAc(b1-2)Man(a1-3)[GlcNAc(b1-3)Gal(b1-4)GlcNAc(b1-3)Gal(b1-4)GlcNAc(b1-3)Gal(b1-4)GlcNAc(b1-3)Gal(b1-4)GlcNAc(b1-2)Man(a1-6)]Man(b1-4)GlcNAc(b1-4)GlcNAc
Procedure, shortened: as §1

[30] = target: GlcNAc(b1-3)Gal(b1-4)GlcNAc(b1-3)Gal(b1-4)GlcNAc(b1-3)Gal(b1-4)GlcNAc(b1-3)Gal(b1-4)GlcNAc(b1-2)Man(a1-3)[GlcNAc(b1-3)Gal(b1-4)GlcNAc(b1-3)Gal(b1-4)GlcNAc(b1-3)Gal(b1-4)GlcNAc(b1-3)Gal(b1-4)GlcNAc(b1-2)Man(a1-6)]Man(b1-4)GlcNAc(b1-4)[Fuc(a1-6)]GlcNAc
Procedure, shortened: as §1

B1: Di AAL2 (Agrocybe aegerita) (protein)
chain: MTSNVITQDLPIPVASRGFADIVGFGLDGVVIGRNAVNLQPFLAVKNFAQNAGGWLTTKHVRLIADTTGTGKGDIVGFGNAGVYVSVNNGKNTFADPPKMVIANFGYDAGGWRVEKHLRYLADIRKIGRADIIGFGEKGVLVSRNNGGLNFGPATLVLKDFGYDAGGWRLDRHLRFLADVTGNGHLDIVGFGDKHVFISRNNGDGTFAPAKSVIDNFCIDAGGWKIGDHPRFVADLTGDGTADIIGCGKAGCWVALNNGGGVFGQVKLVINDFGTDKGWQAAKHPRFIADLTGNGRGDVVGFGNAGVYVALNNGDGTFQSAKLVLKDFGVQQGWTVSKHRRFVVDLTGDGCADIIGFGEKETLVSYNDGKGNFGPVKALTNDFSFSGGKWAPETTVCWMANLDSSRHPAPAPMTSNVITQDLPIPVASRGFADIVGFGLDGVVIGRNAVNLQPFLAVKNFAQNAGGWLTTKHVRLIADTTGTGKGDIVGFGNAGVYVSVNNGKNTFADPPKMVIANFGYDAGGWRVEKHLRYLADIRKIGRADIIGFGEKGVLVSRNNGGLNFGPATLVLKDFGYDAGGWRLDRHLRFLADVTGNGHLDIVGFGDKHVFISRNNGDGTFAPAKSVIDNFCIDAGGWKIGDHPRFVADLTGDGTADIIGCGKAGCWVALNNGGGVFGQVKLVINDFGTDKGWQAAKHPRFIADLTGNGRGDVVGFGNAGVYVALNNGDGTFQSAKLVLKDFGVQQGWTVSKHRRFVVDLTGDGCADIIGFGEKETLVSYNDGKGNFGPVKALTNDFSFSGGKWAPETTVCWMANLDSSRH
glycan array binding signal (z-score) [1]: 0.953 | glycan array binding signal (z-score) [2]: -0.219 | glycan array binding signal (z-score) [3]: 1.51 | glycan array binding signal (z-score) [4]: -0.266 | glycan array binding signal (z-score) [5]: -0.275 | glycan array binding signal (z-score) [6]: -0.212 | glycan array binding signal (z-score) [7]: 0.327 | glycan array binding signal (z-score) [8]: -0.21 | glycan array binding signal (z-score) [9]: -0.27 | glycan array binding signal (z-score) [10]: -0.291 | glycan array binding signal (z-score) [11]: 0.527 | glycan array binding signal (z-score) [12]: 1.38 | glycan array binding signal (z-score) [13]: -0.312 | glycan array binding signal (z-score) [14]: 0.24 | glycan array binding signal (z-score) [15]: 2.83 | glycan array binding signal (z-score) [16]: 1.75 | glycan array binding signal (z-score) [17]: 1.86 | glycan array binding signal (z-score) [18]: 2.27 | glycan array binding signal (z-score) [19]: 3.25 | glycan array binding signal (z-score) [20]: 3.42 | glycan array binding signal (z-score) [21]: 5.83 | glycan array binding signal (z-score) [22]: 2.13 | glycan array binding signal (z-score) [23]: 3.47 | glycan array binding signal (z-score) [24]: 3.72 | glycan array binding signal (z-score) [25]: 5.12 | glycan array binding signal (z-score) [26]: 5.42 | glycan array binding signal (z-score) [27]: 4.23 | glycan array binding signal (z-score) [28]: 5.39 | glycan array binding signal (z-score) [29]: 5.42 | glycan array binding signal (z-score) [30]: 5.09
